Some of the results follow. Sequences were assembled here from the parent chain. Values near 0.05 are background.
B1: TEV protease; numbered along this chain (parent)
chain: MGESLFKGPRDYNPISSSICHLTNESDGHTTSLYGIGFGPFIITNKHLFRRNNGTLVVQSLHGVFKVKDTTTLQQHLVDGRDMIIIRMPKDFPPFPQKLKFREPQREERICLVTTNFQTKSMSSMVSDTSCTFPSGDGIFWKHWIQTKDGQCGSPLVSTRDGFIVGIHSASNFTNTNNYFTSVPKNFMELLTNQEAQQWVSGWRLNADSVLWGGHKVFMVKPEEPFQPVKEATQL

Variants of: B1
Experiment: raw area under fraction-flipped curve 0-4 h after induction (AUC4h, not background-subtracted), DNA-recorder readout of cleavage of the substrate (dimensionless); higher = more cleavage of the substrate by the protease variant
Details: temperature: 34 °C; time window: 0-4 h after rhamnose induction
Experimental: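 In vivo DNA recorder in E. coli TOP10(DE3) ΔrhaA at 34 °C. Each TEVp single-site mutant (parent TEVp 0) is paired with a single-site variant of the 7-mer TEVs (canonical ENLYFQ|S). The substrate sits between flexible linkers in a Bxb1-sfGFP-TEVs-SsrA fusion, so cleavage stabilises Bxb1 and speeds flipping of a recombination array, read by NGS. The value is the raw area under the fraction-flipped curve over 0-4 h after rhamnose induction (AUC4h), with ≥20 reads per time point. It is not background-subtracted; inactive controls average about 0.047.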
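Further: Bxb1 expression induced with 0.2% (w/v) L-rhamnose at OD600 near 0.5, cultures sampled hourly, flipped fraction per protease–substrate barcode pair counted by paired-end Illumina sequencing.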

| Variant | area with substrate ENLCFQS | area with substrate ENLDFQS | area with substrate ENLEFQS | area with substrate ENLIFQS | area with substrate ENLMFQS | area with substrate ENLNFQS | area with substrate ENLFFQS | area with substrate ENLHFQS | area with substrate ENLKFQS | area with substrate ENLSFQS | area with substrate ENLWFQS | area with substrate ENLGFQS | area with substrate ENLPFQS | area with substrate ENLRFQS | area with substrate ENLTFQS |
| --- | --- | --- | --- | --- | --- | --- | --- | --- | --- | --- | --- | --- | --- | --- | --- |
| MGESLFKGPRDYNPISSSICHLTNESDGHTTSLYGIGFGPFIITNKHLFRRNNGTLVVQSLHGVFKVKDTTTLQQHLVDGRDMIIIRMPKDFPPFPQKLKFREPQREERICLVTTNFQTKSMSSMVSDTSCTFPSGDGIFWKHWIQDKDGQCGSPLVSTRDGFIVGIHSASNFTNTNNYFTSVPKNFMELLTNQEAQQWVSGWRLNADSVLWGGHKVFMVKPEEPFQPVKEATQL [T147D] | 0.0551 | 0.0744 | 0.0813 | 0.0517 | 0.0763 | 0.0684 | – | – | – | – | – | – | – | – | – |
| MGESLFKGPRDYNPISSSICHLTNESDGHTTSLYGIGFGPFIITNKHLFRRNNGTLVVQSLHGVFKVKDTTTLQQHLVDGRDMIIIRMPKDFPPFPQKLKFREPQREERICLVTTNFQTKSMSSMVSDTSCTFPSGDGIFWKHWIQTKCGQCGSPLVSTRDGFIVGIHSASNFTNTNNYFTSVPKNFMELLTNQEAQQWVSGWRLNADSVLWGGHKVFMVKPEEPFQPVKEATQL [D149C] | 0.0777 | 0.0658 | 0.0569 | 0.098 | – | 0.0373 | 0.108 | 0.0815 | 0.0829 | 0.0859 | 0.0646 | – | – | – | – |
| MGESLFKGPRDYNPISSSICHLTNESDGHTTSLYGIGFGPFIITNKHLFRRNNGTLVVQSLHGVFKVKDTTTLQQHLVDGRDMIIIRMPKDFPPFPQKLKFREPQREERICLVTTNFQTKSMSSMVSDTSCTFPSGDGIFWKHWIQTKDGFCGSPLVSTRDGFIVGIHSASNFTNTNNYFTSVPKNFMELLTNQEAQQWVSGWRLNADSVLWGGHKVFMVKPEEPFQPVKEATQL [Q151F] | 0.0498 | – | – | 0.0609 | 0.0778 | – | – | – | 0.0671 | – | – | 0.0459 | – | – | – |
| MGESLFKGPRDYNPISSSICHLTNESDGHTTSLYGIGFGPFIITNKHLFRRNNGTLVVQSLHGVFKVKDTTTLQQHLVDGRDMIIIRMPKDFPPFPQKLKFREPQREERICLVTTNFQTKSMSSMVSDTSCTFPSGDGIFWKHWIQTKDGQCGSPLISTRDGFIVGIHSASNFTNTNNYFTSVPKNFMELLTNQEAQQWVSGWRLNADSVLWGGHKVFMVKPEEPFQPVKEATQL [V157I] | 0.0805 | 0.0578 | 0.07 | 0.0853 | – | 0.0824 | 0.0899 | 0.0717 | – | 0.0676 | – | – | 0.0818 | 0.0691 | 0.075 |
| MGESLFKGPRDYNPISSSICHLTNESDGHTTSLYGIGFGPFIITNKHLFRRNNGTLVVQSLHGVFKVKDTTTLQQHLVDGRDMIIIRMPKDFPPFPQKLKFREPQREERICLVTTNFQTKSMSSMVSDTSCTFPSGDGIFWKHWIQTKDGQCGSPLMSTRDGFIVGIHSASNFTNTNNYFTSVPKNFMELLTNQEAQQWVSGWRLNADSVLWGGHKVFMVKPEEPFQPVKEATQL [V157M] | 0.0537 | – | 0.0778 | 0.0752 | – | 0.066 | 0.0729 | 0.0527 | 0.0734 | – | 0.0497 | 0.0732 | – | – | – |
